Screen size: about 410,000 compounds; about 5,000 (1.2%) were called active. Inconclusive means that the source gave no clear call. Such entries were picked first, then a sample of the others. Calls come from the whole dose curve; as a rule, active = well fitted inhibition curve with a large enough effect; inconclusive = small, poorly fitted or top-dose-only effect; inactive = no such curve, though single readings can be large or run the other way. Potencies of inconclusive entries are doubtful fits and often do not repeat.
Assay: qHTS for Inhibitors of TGF-b; note: nearly all actives have a fitted effect of over 65% in size
Details: HepG2 CAGA-GFP TGF-b/SMAD3 reporter, GFP fluorescence, 18 h, TGF-beta stimulated, 500 pg/mL final; series mostly up to 46.1 µM; activity, negative = inhibition: at the top concentration
How it was run: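 HEPG2 CAGA-GFP reporter cells (1000/well, DMEM with 1% FBS) received compounds, then recombinant TGF-beta at 500 pg/mL final for 18 hours at 37 degrees C. Per-cell GFP summed per well was normalised to unstimulated and stimulated DMSO controls before curve fitting.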
% is set by controls: 0 for no effect and ±100 for the full control effect; potency is the fitted concentration of half-maximal effect; tags give direction and shape of the fitted curve.

Structure (SMILES) | activity, negative = inhibition | Potency
CN(C)CCCC(=O)c1ccc2c(c1)OCO2 | inactive: 19.9% | 
COc1cc(OC)c(/C=C/c2cc[n+](C)c3ccccc23)c(OC)c1 |  | inconclusive: 35.5 µM [inhibitor, single point]
CCCc1cc(-c2ccc3c(c2)COc2c4ccccc4nn2-3)on1 |  | inconclusive: 12.6 µM [inhibitor, single point]
COc1ccc(Cl)cc1C(=O)N1CCN(c2ccccn2)CC1 |  | inconclusive: 3.16 µM [inhibitor, single point]
Cc1cc(C)cc(N(CC(=O)Nc2cccc(C)c2C)S(=O)(=O)c2c(C)[nH]c(=O)[nH]c2=O)c1 |  | inconclusive: 17.8 µM [inhibitor, single point]
Cc1ccc(N(Cc2ccc(C(=O)NCCSc3ccccn3)cc2)S(C)(=O)=O)cc1C | inactive: -18.4% | 
CC(C)Oc1ccc(CNC(=O)c2ccc3nc(N4CCOCC4)sc3c2)cc1 |  | inconclusive: 3.98 µM [inhibitor, partial curve, poor fit]
O=[N+]([O-])c1cc([N+](=O)[O-])c(Oc2cc(Cl)ccc2Cl)cc1NC1CCCCCCC1 |  | inconclusive: 4.47 µM [inhibitor, single point]
COCCN(C(=S)Nc1ccc(C(C)C)cc1)C(C)c1cccs1 (stereo not drawn) |  | inconclusive: 14.1 µM [inhibitor, single point]
COc1ccc(C(=O)COC(=O)Cc2c[nH]c3ccccc23)c(OC)c1 |  | inconclusive: 35.5 µM [inhibitor, single point]
COc1cc(C(=O)N/N=C(\C)Cc2ccccc2)cc(OC)c1OC |  | inconclusive: 5.62 µM [inhibitor, full curve, poor fit]
COc1ccc(-n2sc3ccc(F)cc3c2=O)cc1 |  | inconclusive: 3.55 µM [inhibitor, partial curve, poor fit]
O=C(Cn1c(=O)oc2ccccc21)NCc1cccc(Cl)c1 | inactive: 14% | 
Cn1cc(CN2CCN(c3cnccn3)CC2)c(-c2cccc(Cl)c2)n1 | inactive: -36.3% | 
O=C1CCc2cc(S(=O)(=O)Nc3ccccc3F)cc3c2N1CCC3 | inactive: -4.51% | 
COc1ccccc1C/C(N)=N/OC(=O)c1ccco1 | inactive: -5.12% | 
CCN1C(=O)S/C(=C/c2ccc(Sc3nc4ccccc4[nH]3)o2)C1=O |  | active: 12.6 µM
COc1ccccc1NC(=O)c1c(NCc2sccc2C)sc2c1CCCCC2 |  | inconclusive: 22.4 µM [inhibitor, partial curve, poor fit]
CCC(=O)N1CCc2cc(S(=O)(=O)NCCC(=O)N3CCN(c4cccc(C)c4)C(C)C3)ccc21 (stereo not drawn) |  | inconclusive: 20 µM [inhibitor, single point]
COc1ccccc1Nc1ccc2nonc2c1[N+](=O)[O-] | inactive: -12.9% | 
C[C@H](NC(=O)c1ccc(C(C)(C)C)cc1)C(=O)N1CCN(C/C=C/c2ccccc2)CC1 |  | inconclusive: 17.8 µM [inhibitor, partial curve, poor fit]
O=C(NC1CCN(C(=O)N2c3ccccc3Sc3ccccc32)CC1)c1ccccc1F |  | inconclusive: 35.5 µM [inhibitor, partial curve, poor fit]
CCOc1ccccc1N1CCN(C(=O)CCCc2nc3ccccc3s2)CC1 |  | inconclusive: 35.5 µM [inhibitor, single point]

Structure (SMILES) | activity, negative = inhibition | Potency
CCC1=NN(C(=O)c2ccccc2O)C(O)(c2ccccc2)C1 (stereo not drawn) |  | active: 12.6 µM
COc1ccc(S(=O)(=O)N2CCC(c3ccncc3)CC2)cc1Cl |  | inconclusive: 0.708 µM [inhibitor, full curve, poor fit]
CN(C)CCCN(C(=O)CCSc1ccccc1)c1nc2cc3c(cc2s1)OCO3 |  | inconclusive: 17.8 µM [inhibitor, partial curve, poor fit]
CCCCOc1c(Cl)cc(C(=O)N(Cc2ccc(C)o2)C2CCS(=O)(=O)C2)cc1Cl (stereo not drawn) |  | inconclusive: 11.2 µM [inhibitor, partial curve, poor fit]
Cc1ccc(S(=O)(=O)N2CCC(C(N)=O)CC2)c(C)c1C | inactive: -3.94% | 
COc1ccc(CNC(=O)CSc2nnc(C(F)(F)F)n2C)cc1 |  | inconclusive: 5.62 µM [inhibitor, full curve]
COc1ccc2c(=O)c(-c3cnn(-c4ccccc4)c3)c(C)oc2c1 |  | inconclusive: 14.1 µM [inhibitor, single point]
Cc1cc(NC(=O)c2c(Cl)c(C)nn2C)no1 | inactive: 20.8% | 
COC(=O)C1=C(C)N(Cc2ccccc2)C(=NCCCCO)N[C@H]1c1cccc(C(F)(F)F)c1 |  | inconclusive: 11.2 µM [inhibitor, partial curve]
CC(=O)N1[C@H](Cc2ccccc2)C=C[C@]1(C)C(=O)NCc1ccc(C)o1 |  | inconclusive: 7.94 µM [inhibitor, partial curve, poor fit]
CCN(CC)C(=O)c1ccc2nc3ccccc3nc2c1 |  | active: 10 µM
CCCNC(=O)c1cc(C2CCCCN2C(=O)c2ccc(OC)cc2)on1 (stereo not drawn) | inactive: 6.15% | 
Cc1cccc(/C=C/c2onc(C)c2S(=O)(=O)N2CCC(C(=O)N3CCC(C)CC3)CC2)c1 |  | inconclusive: 5.62 µM [inhibitor, single point]
COC(=O)c1ccc(OCC(O)CN(CC(C)C)CC(C)C)cc1 (stereo not drawn) | inactive: -5.44% | 
CN(Cc1ccc(Cl)cc1)C(C(=O)NC1CCCCC1)c1ccnc2ccccc12 (stereo not drawn) |  | inconclusive: 12.6 µM [inhibitor, partial curve, poor fit]
Cc1c(C(=S)Nc2ccccc2)cnn1-c1ccccc1 |  | inconclusive: 31.6 µM [inhibitor, single point]
Cc1ccccc1C(=O)c1cccn1CC(=O)NC(C)CCc1ccccc1 (stereo not drawn) |  | inconclusive: 15.8 µM [inhibitor, single point]
O=C(Nc1ccc(N2CCC(N3CCCCC3)CC2)c(C(=O)O)c1)c1ccc(Br)cc1 | inactive: -5.5% | 
CCOc1cc(C2C(C(=O)OC)=C(C)NC3=C2C(=O)c2ccccc23)ccc1O (stereo not drawn) |  | inconclusive: 8.91 µM [inhibitor, partial curve, poor fit]
O=C(NNC(=O)c1ccc([N+](=O)[O-])o1)c1ccccc1 |  | active: 7.94 µM
CC(=O)Nc1ccc2nc(NC(=O)c3ccco3)sc2c1 | inactive: 31.9% | 
c1ccc(COc2ncnc3c2ncn3CCCN2CCN(c3ncccn3)CC2)cc1 |  | inconclusive: 14.1 µM [inhibitor, single point]
CCC(=O)NC(c1ccccc1OC)c1ccc2cccnc2c1O (stereo not drawn) |  | active: 2.51 µM

Structure (SMILES) | activity, negative = inhibition | Potency
N#Cc1ccccc1Sc1ccccc1C(=O)Nc1ccc(Br)cc1 |  | inconclusive: 17.8 µM [inhibitor, single point]
Cc1cccc(NCC(=O)N/N=C\c2cccc(Oc3ccccc3)c2)c1 |  | inconclusive: 35.5 µM [inhibitor, single point]
C=CCn1c(C)cc(C2=NNC(=NCc3ccccc3)SC2)c1C | inactive: -10.5% | 
CCCCn1c(SCC(=O)c2ccc(O)c(O)c2)nc2ccsc2c1=O |  | inconclusive: 14.1 µM [inhibitor, single point]
CNc1c([N+](=O)[O-])cnn1-c1ccccc1Cl |  | inconclusive: 28.2 µM [inhibitor, single point]
COc1cc(C(F)(F)F)c(C(=O)N(C)Cc2cc(Cl)cc(Cl)c2)cn1 |  | inconclusive: 2 µM [inhibitor, full curve]
CC1=Nc2ccccc2N=C(NC(=O)CSc2nnnn2-c2ccccc2)C1c1ccccc1 (stereo not drawn) |  | inconclusive: 35.5 µM [inhibitor, single point]
CC(C)(C)C1CCC(=NNC(=S)NCc2ccccc2)CC1 (stereo not drawn) | inactive: -3.87% | 
Cc1ccc(N2C(S)=C(C#N)C(=O)NC2c2cccs2)cc1 (stereo not drawn) |  | inconclusive: 17.8 µM [inhibitor, single point]
CCCOc1ccc(C(=O)Nc2cccc(-c3nc4ccccc4[nH]3)c2)cc1 |  | inconclusive: 35.5 µM [inhibitor, single point]
Cc1cccc(C)c1OCC(=O)NCC1(N2CCOCC2)CCCCC1 |  | inconclusive: 35.5 µM [inhibitor, single point]
CCCCN(CCCC)Cc1cc(=O)oc2cc(OC)c(Cl)cc12 | inactive: -19.5% | 
CCCCN(Cc1ccccc1)S(=O)(=O)c1cc(Br)cc2c1N(C(C)=O)C(C)C2 (stereo not drawn) |  | inconclusive: 10 µM [inhibitor, partial curve]
CN(C(=O)c1cccc([N+](=O)[O-])c1)c1ccccc1C(=O)NCc1ccccc1 |  | inconclusive: 12.6 µM [inhibitor, partial curve, poor fit]
CS(=O)(=O)Nc1cccc(C2=NN(C(=O)c3ccc(F)cc3)C(c3cccs3)C2)c1 (stereo not drawn) |  | inconclusive: 12.6 µM [inhibitor, single point]
Cn1c(Oc2ccc3c(c2)OCO3)nc2c1c(=O)n(Cc1ccccc1)c(=O)n2C | inactive: 10.6% | 
COc1cc2c(cc1Cl)/C(=C\CCN(C)C)c1ccccc1S2 |  | inconclusive: 22.4 µM [inhibitor, single point]
CCOC(=O)c1c(C)oc2c1cc(NS(=O)(=O)c1ccc(C(=O)O)cc1)c1ccccc12 |  | inconclusive: 35.5 µM [inhibitor, single point]
CC12CCC(C(=O)N(NC(=O)c3cc(Cl)ccc3O)C1=O)C2(C)C (stereo not drawn) |  | inconclusive: 6.31 µM [inhibitor, single point]
C[n+]1ccc(C(=O)NCCC[N+](C)(C)C)cc1/C=N/O |  | inconclusive: 4.47 µM [inhibitor, full curve]
CSc1ccc(/C=C/C(=O)OCC(=O)c2ccc[nH]2)cc1 | inactive: 5.52% | 
O=C1CCCN1c1ccc(S(=O)(=O)Nc2cccnc2)cc1 |  | inconclusive: 2 µM [inhibitor, full curve]
